Experimental data published in PubChem BioAssay AID588855 (National Center for Advancing Translational Sciences (NCATS), 2011).
Several values for one entry are separate records, joined by “and”; a condition that tells them apart may be missing. Equal entries are not always repeated. About 5,000 (1.2%) of roughly 410,000 compounds were called active. This list was built around the results that the source calls inconclusive (neither active nor inactive); the mix of calls is not that of the screen. The call rests on the fitted dose curve; in most records, active means well fitted inhibition curve with a large enough effect; inconclusive means small, poorly fitted or top-dose-only effect; inactive means no such curve, though single readings can be large or run the other way. A potency beside an inconclusive call is a rough fit, not a confirmed value.

Assay: qHTS for Inhibitors of TGF-b; further: nearly all actives have a fitted effect of over 65% in size
Conditions: HepG2 CAGA-GFP TGF-b/SMAD3 reporter, GFP fluorescence, 18 h, TGF-beta stimulated, 500 pg/mL final; series mostly up to 46.1 µM; activity, negative = inhibition: at the top concentration
Summary of the method: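 HEPG2 CAGA-GFP, 1000 cells/well; 2 h settle, 37 C; cpd via pin tool; TGF-b 500 pg/mL final; 18 h, 37 C; GFP imaging ex488/em500-530; %Activity normalised to -TGF-b and +DMSO controls; CRC fit, curve class.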
On the % scale 0 is the no-effect control and ±100 the full control effect; potency means the concentration at half of the fitted maximal effect; tags describe the fitted curve by direction and shape.

SMILES	Potency	activity, negative = inhibition
COc1ccccc1NC(=O)C1=C(C)Nc2nc(SCc3ccccc3Cl)nn2C1c1ccncc1 (configuration not stated)	inconclusive: 35.5 µM [inhibitor, single point]	
CC(=O)c1c(C)oc2ccc(N(C(=O)c3ccncc3)S(=O)(=O)c3ccc(C)cc3C)cc12		inactive: -3.75%
CCCCn1nc(NC(=O)c2cccs2)c2cc3cc(OC)ccc3nc21	inconclusive: 35.5 µM [inhibitor, single point]	
FC(F)Oc1ccc(NC(=S)NCc2ccco2)cc1Cl	inconclusive: 35.5 µM [inhibitor, single point]	
CCN(CC)C(=O)Cn1cc(C(=O)C(=O)N2CCN(c3ccc([N+](=O)[O-])cc3)CC2)c2ccccc21		inactive: 17.2%
COc1cc(Cl)c(C)cc1NC(=O)CNC(=O)Cn1cnc2ccccc2c1=O		inactive: -0.171%
CC(C)CNS(=O)(=O)c1ccc(NC(=O)Cn2nc(-c3ccc(F)cc3)ccc2=O)cc1	inconclusive: 25.1 µM [inhibitor, single point]	
O=[N+]([O-])c1ccc(CSc2ccc(S(=O)(=O)N3CCCC3)cn2)cc1	inconclusive: 10 µM [inhibitor, partial curve]	
Cc1ccc(Nc2c(-c3ccc(N4CCOCC4)cc3)nc3cnccn23)cc1	inconclusive: 20 µM [inhibitor, single point]	
CCOC(=O)c1cc2c(ccn2C)n1CC(=O)N(Cc1ccccc1)c1ccccc1	inconclusive: 35.5 µM [inhibitor, single point]	
COc1ccc(/C=C/CN2CCCC(CO)(Cc3cccc(Cl)c3)C2)cc1 (configuration not stated)	inconclusive: 25.1 µM [inhibitor, single point]	
O=C(O)c1cccc(N/N=C/c2cc(Br)cc(Br)c2O)c1	inconclusive: 17.8 µM [inhibitor, single point]	
O=[N+]([O-])c1cc(-c2nc(-c3ccncc3)no2)ccc1NCc1ccccc1		inactive: -2.42%
CC(C)CCN(C(=O)c1csnn1)C(C(=O)NC1CCCCC1)c1ccc(F)cc1 (configuration not stated)		inactive: -29.7%
CCOc1ccc(-c2csc(Cn3c(CN4CCN(C)CC4)nc4ccccc4c3=O)n2)cc1	inconclusive: 6.31 µM [inhibitor, single point]	
Cc1ccc(S(C)(=O)=O)cc1C(=O)Nc1cccc(S(=O)(=O)N2CCCCCC2)c1	inconclusive: 25.1 µM [inhibitor, single point]	
O=C(O)c1cc(-c2ccc3c(c2)OCO3)nc2ccccc12		inactive: 2.94%
COc1ccc(NC(=O)CSCC(=O)Nc2ccccc2N2CCCC2)cc1	inconclusive: 11.2 µM [inhibitor, single point]	
O=C(NNc1nc2cc3c(cc2s1)OCO3)c1ccccc1		inactive: 14.6%
CC[C@]1(C(=O)OC)[C@H]2C(=O)N(C)C(=O)[C@H]2[C@H]2CN=C(SC)N21		inactive: -3.06%
Cc1ccc(OCC(=O)NNC(=O)c2ccc(-n3cncn3)c([N+](=O)[O-])c2)cc1		inactive: 0%
CCCCCCN1C[C@@H](n2cc(COC(=O)c3ccccc3)nn2)[C@H](O)C[C@@H]1c1ccc(OC)cc1	inconclusive: 35.5 µM [inhibitor, single point]	
O=[N+]([O-])c1cccc(-c2ccc3nnc(SCc4ccccn4)n3n2)c1	inconclusive: 35.5 µM [inhibitor, partial curve, poor fit]	

SMILES	Potency	activity, negative = inhibition
CC(C)(C)c1ccc(C(=O)NCCn2c(N)c(C#N)c3nc4ccccc4nc32)cc1	inconclusive: 12.6 µM [inhibitor, single point]	
O=C(CNC(=O)c1ccc(Cl)cc1)OCc1cc(=O)n2nc(C3CCCCC3)sc2n1	inconclusive: 0.562 µM [inhibitor, full curve]	
Cc1ccc(Nc2nnc(SCC(=O)Nc3cccc(S(=O)(=O)NC4=NCCCCC4)c3)s2)c(C)c1	inconclusive: 11.2 µM [inhibitor, partial curve, poor fit]	
COC(=O)c1ccc(Cn2nc(C)c(Cl)c2C)o1		inactive: -0.175%
Cc1ccc(C(O)c2ncc(-c3cccc4ccccc34)[nH]2)c(C)c1 (configuration not stated)	inconclusive: 35.5 µM [inhibitor, single point]	
CCN(CC)c1ccc(/C=N/NC(=O)c2ccco2)c(O)c1	inconclusive: 11.2 µM [inhibitor, partial curve, poor fit]	
Cc1ccc2c(c1)c1c(c(=O)n(-c3ccccc3C)c(=O)n1CC(=O)NCC1CCCO1)n2C (configuration not stated)	inconclusive: 8.91 µM [inhibitor, partial curve, poor fit]	
CC1(C)OC(=O)C(=CNc2ncccn2)C(=O)O1		inactive: -1.73%
COc1ccccc1NC(CC(=O)c1ccccc1)C(=O)OCC(=O)c1ccc(C)c(C)c1 (configuration not stated)		inactive: 31.7%
Clc1ccc(Cn2ncc3c(N4CCN(c5ccccc5)CC4)ncnc32)cc1	inconclusive: 5.62 µM [inhibitor, single point]	
COc1ccc(O)c(/C=N/Nc2nc3ccccc3[nH]2)c1		inactive: -3.13%
Nc1nc2ccccc2n1/N=C/c1ccc(-c2ccccc2)o1	inconclusive: 35.5 µM [inhibitor, single point]	
COc1ccc(Cn2c(O)c(/C=N/NC(=O)c3cccnc3)c3ccccc3c2=O)cc1	inconclusive: 35.5 µM [inhibitor, partial curve, poor fit]	
Cc1ccc(CNC(=O)CCS(=O)(=O)c2ccc3c(c2)NC(=O)C(C)S3)cc1 (configuration not stated)	inconclusive: 22.4 µM [inhibitor, partial curve, poor fit]	
O=S(=O)(NCc1ccc(Cl)cc1)c1ccc(N2CCCCS2(=O)=O)cc1	inconclusive: 12.6 µM [inhibitor, partial curve, poor fit]	
Cc1ccc(OCCC(=O)OCC(=O)Nc2ccc(F)cc2)cc1		inactive: -1.91%
CCCc1nc2ccc(Br)cn2c1Cc1ccccc1	inconclusive: 35.5 µM [inhibitor, single point]	
CC(C)[C@H]1COCCS(=O)(=O)N1Cc1cccc(Cl)c1	inconclusive: 8.91 µM [inhibitor, partial curve] and inconclusive: 5.62 µM [inhibitor, single point]	
Cc1ccc(CN2CC(C(=O)N(CC(C)C)c3c(N)n(Cc4ccccc4)c(=O)[nH]c3=O)CC2=O)cc1 (configuration not stated)		inactive: -10.6%
CCOC(=O)c1c(-c2ccc(C)c(C)c2)csc1NC(=O)C1CC=CCC1C(=O)O (configuration not stated)	inconclusive: 2.51 µM [inhibitor, full curve]	
CC(C)(C)C(=O)Cn1ncc(Cl)c(Cl)c1=O		inactive: -0.722%
CC(=O)c1ccc(N2CCN(C(=O)c3ccccc3SCC(=O)NCc3ccco3)CC2)c(F)c1		inactive: -4.96%
CC(=O)c1cccc(-c2csc3ncnc(Sc4nnnn4C)c23)c1	active: 6.31 µM	

SMILES	Potency	activity, negative = inhibition
Nc1c(C(=O)NCc2ccccc2)nnn1Cc1cccc(Br)c1	inconclusive: 14.1 µM [inhibitor, partial curve, poor fit]	
O=C(CCN1CCC(c2ccccc2)C1)c1cccs1 (configuration not stated)	inconclusive: 12.6 µM [inhibitor, partial curve, poor fit]	
Cc1cccc(NC(=O)Cn2c(=O)n(CCC(=O)N3CCc4ccccc4C3)c(=O)c3ccccc32)c1	inconclusive: 3.55 µM [inhibitor, single point]	
Cc1c(O)ccc2c(CC(=O)N[C@@H](Cc3ccccc3)C(=O)O)cc(=O)oc12		inactive: 15.3%
COc1ccc(CN2CCNC(=O)C2CC(=O)NCc2cc(C)n(C)n2)c(F)c1 (configuration not stated)		inactive: 9.98%
CC(C)Nc1cc(C(C)(C)C)nc2c(-c3ccccc3)cnn12	inconclusive: 15.8 µM [inhibitor, single point]	
O=C1C=C(Nc2ccc(Cl)cc2Cl)CC(c2ccco2)C1 (configuration not stated)	inconclusive: 6.31 µM [inhibitor, partial curve, poor fit]	
CS(=O)(=O)c1ccc2nc(NC(=O)c3ccc(N4CCCC4=O)cc3)sc2c1	inconclusive: 3.16 µM [inhibitor, partial curve, poor fit]	
COc1ccc(NC(=O)CSc2nc3c(c(=O)[nH]2)CN(Cc2ccccc2)CC3)cc1Cl		inactive: -16.6%
Cc1ccc(Nc2cc(Cl)nc(N)n2)c([N+](=O)[O-])c1		inactive: 8.46%
COc1cc(NC(=O)C2CC(c3cccc(Br)c3)=NO2)cc(OC)c1OC (configuration not stated)	inconclusive: 2.82 µM [inhibitor, full curve, poor fit]	
Cc1ccc(-c2nc3ccc(Cl)cn3c2CC2CCCCC2)cc1		inactive: -4.58%
C/C(=N/NC(=O)c1cccs1)c1c(C)[nH]n(-c2nc3ccccc3s2)c1=O		inactive: -27%
O=C(c1ccc(Cl)s1)N1CCc2ccccc21	inconclusive: 3.16 µM [inhibitor, single point]	
COC(=O)c1ccccc1NC(=O)CN1C(=O)COc2ccccc21		inactive: -3.27%
Nc1ccc(Cl)c(NC(=O)c2cccs2)c1	inconclusive: 3.16 µM [inhibitor, single point]	
CCCCOC(=O)c1[nH]c(C)c(C(=O)OC)c1C	inconclusive: 20 µM [inhibitor, single point]	
CCCc1cc(C(=O)Nc2ccc(C(=O)c3ccc(F)cc3)cc2)n(C)n1	inconclusive: 14.1 µM [inhibitor, single point]	
O=C(COc1ccc(Cl)cc1Br)N1CCN(S(=O)(=O)c2ccccc2)CC1	inconclusive: 22.4 µM [inhibitor, single point]	
CCn1cc(C(=O)NCCc2ccc(OC)c(OC)c2)c(=O)c2cc(S(=O)(=O)N3CCc4ccccc4C3)ccc21	inconclusive: 35.5 µM [inhibitor, partial curve, poor fit]	
CCCCN(C(=O)C1CCCO1)c1c(N)n(CCC)c(=O)[nH]c1=O (configuration not stated)		inactive: 1.87%
